The other results are listed elsewhere or left out. Cut-off read from the data, not from the text of the source: active = 3.2 or more and inactive = the rest. The signal is at background level for most entries.
Tests used:
Assay in all cases: enrichment score (SH2-bound / input frequency) (ratio); bacterial display of known human phosphotyrosine sites (pTyr-Var adds point mutants) read by sequencing; higher = stronger binding; tyrosines were phosphorylated by kinases first
Settings in all cases: peptide library: pTyr-Var
[1] = target: SHP2 C-SH2 domain E139D
[2] = target: SHP2 C-SH2 domain wild-type
[3] = target: SHP2 N-SH2 domain L43F
[4] = target: SHP2 N-SH2 domain T42A
[5] = target: SHP2 N-SH2 domain T52S
[6] = target: SHP2 N-SH2 domain wild-type

Measured: enrichment score
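Note: displayed peptides selected on beads carrying the immobilized SH2 domain, with library peptides lacking any tyrosine serving as negative controls.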

B1: CCDC151_Y542_R545P (peptide)
chain: GRLPEYNTPIA
inactive: [1] 0.731 | [2] 0.757 | [3] 0.87 | [4] 0.741 | [5] 0.804 | [6] 0.744

B2: CCDC88B_Y1277 (peptide)
chain: REQREYLDQLN
inactive: [1] 0.722 | [2] 0.631 | [3] 0.647 | [4] 0.515 | [5] 0.723 | [6] 0.603

B3: CCPG1_Y569_F566S_YF (peptide)
chain: TVSSDYLHPQF
inactive: [1] 0.528 | [2] 0.78 | [3] 0.712 | [4] 1.01 | [5] 0.641 | [6] 0.809

B4: CCR5_Y297 (peptide)
chain: INPIIYAFVGE
inactive: [1] 0.801 | [2] 0.969 | [3] 0.872 | [4] 1.26 | [5] 0.985 | [6] 1.01

B5: CCT6B_Y250_G247A (peptide)
chain: NSAFFYKTAEE
inactive: [1] 0.86 | [2] 0.959 | [3] 1.12 | [4] 0.93 | [5] 1.04 | [6] 0.922

B6: CCDC88B_Y1277_D1279E (peptide)
chain: REQREYLEQLN
inactive: [1] 0.535 | [2] 0.876 | [3] 0.392 | [4] 0.649 | [5] 0.778 | [6] 0.592

B7: CCDC93_Y209_R213C (peptide)
chain: EYGRRYGFSCQ
inactive: [1] 0.801 | [2] 0.913 | [3] 0.645 | [4] 0.644 | [5] 0.58 | [6] 0.854

B8: CCDC42_Y149_A144T (peptide)
chain: TKLKDYYIFNK
inactive: [1] 1.22 | [2] 1.42 | [3] 1.16 | [4] 1.19 | [5] 1.19 | [6] 1.18

B9: CCDC39_Y593_T594I (peptide)
chain: RKQQLYIAMEE
inactive: [1] 1.03 | [2] 0.912 | [3] 0.648 | [4] 0.698 | [5] 0.609 | [6] 0.481

B10: CCRL2_Y170_V168M (peptide)
chain: PEFMVYKPQME
inactive: [1] 1.17 | [2] 1.18 | [3] 0.967 | [4] 0.842 | [5] 1.01 | [6] 1.32

B11: CD19_Y378 (peptide)
chain: GTAPSYGNPSS
inactive: [1] 0.536 | [2] 0.537 | [3] 0.447 | [4] 0.496 | [5] 0.51 | [6] 0.599

B12: CBS_Y308 (peptide)
chain: VEGIGYDFIPT
inactive: [1] 0.859 | [2] 0.634 | [3] 0.751 | [4] 0.657 | [5] 0.625 | [6] 0.963

B13: CCRL2_Y170 (peptide)
chain: PEFVVYKPQME
inactive: [1] 0.908 | [2] 1.02 | [3] 0.888 | [4] 0.764 | [5] 0.92 | [6] 1.05

B14: CCDC42_Y149_A144T_YF (peptide)
chain: TKLKDYFIFNK
inactive: [1] 1.18 | [2] 1.02 | [3] 0.913 | [4] 0.813 | [5] 0.985 | [6] 1.1

B15: CC2D2A_Y381 (peptide)
chain: ELETLYKKAVK
inactive: [1] 0.741 | [2] 0.815 | [3] 0.6 | [4] 0.776 | [5] 0.604 | [6] 0.787

B16: CCNB1IP1_Y125 (peptide)
chain: QMEKIYTQQIQ
inactive: [1] 0.96 | [2] 1.05 | [3] 0.909 | [4] 1.11 | [5] 0.885 | [6] 1.05

B17: CCR5_Y339 (peptide)
chain: RASSVYTRSTG
inactive: [1] 0.341 | [2] 0.453 | [3] 0.381 | [4] 0.406 | [5] 0.545 | [6] 0.297

B18: CCR5_Y339_A335V (peptide)
chain: RVSSVYTRSTG
inactive: [1] 0.535 | [2] 0.483 | [3] 0.708 | [4] 0.406 | [5] 0.778 | [6] 0.587

B19: CBR3_Y81_L84V (peptide)
chain: FLRKEYGGVNV
inactive: [1] 0.554 | [2] 0.612 | [3] 0.564 | [4] 0.518 | [5] 0.544 | [6] 0.642

B20: CCDC170_Y323_F324S (peptide)
chain: TSQSQYSSFRE
inactive: [1] 0.314 | [2] 0.386 | [3] 0.515 | [4] 0.354 | [5] 0.385 | [6] 0.442

B21: CCDC102B_Y299 (peptide)
chain: LWKWKYEELKE
inactive: [1] 1.36 | [2] 1.64 | [3] 1.15 | [4] 1.36 | [5] 1.18 | [6] 1.66

B22: CBLC_Y402_H405Y (peptide)
chain: EAVSIYQFYGQ
inactive: [1] 1.18 | [2] 1.11 | [3] 0.974 | [4] 0.966 | [5] 1.05 | [6] 1.12

B23: CCBE1_Y70_C75S (peptide)
chain: ELTTCYRKKCS
inactive: [1] 2.1 | [2] 1.62 | [3] 1.56 | [4] 1.66 | [5] 1.76 | [6] 1.34

B24: CBR3_Y81 (peptide)
chain: FLRKEYGGLNV
inactive: [1] 0.62 | [2] 0.63 | [3] 0.628 | [4] 0.483 | [5] 0.692 | [6] 0.817

B25: CCR5_Y297_E302G (peptide)
chain: INPIIYAFVGG
inactive: [1] 1.29 | [2] 1.1 | [3] 1.12 | [4] 0.817 | [5] 0.822 | [6] 1.41

B26: CCDC93_Y176 (peptide)
chain: DLSEVYKPRRK
inactive: [1] 0.403 | [2] 0.233 | [3] 0.305 | [4] 0.155 | [5] 0.501 | [6] 0.213

B27: CBS_Y308_G305R (peptide)
chain: VERIGYDFIPT
inactive: [1] 0.802 | [2] 0.69 | [3] 0.767 | [4] 0.689 | [5] 0.743 | [6] 0.675

B28: CCDC82_Y331_Q327R (peptide)
chain: KRNSLYSFSDH
inactive: [1] 0.835 | [2] 0.702 | [3] 0.874 | [4] 0.689 | [5] 0.926 | [6] 0.738

B29: CCDC70_Y125_R126C (peptide)
chain: TFWKKYCTFWK
inactive: [1] 0.455 | [2] 0.492 | [3] 0.423 | [4] 0.613 | [5] 0.567 | [6] 0.707

B30: CCDC70_Y125 (peptide)
chain: TFWKKYRTFWK
inactive: [1] 0.494 | [2] 0.366 | [3] 0.275 | [4] 0.501 | [5] 0.581 | [6] 0.58

B31: CCDC42_Y149 (peptide)
chain: AKLKDYYIFNK
inactive: [1] 0.649 | [2] 0.68 | [3] 0.668 | [4] 0.646 | [5] 0.475 | [6] 0.397

B32: CCR5_Y297_G301V (peptide)
chain: INPIIYAFVVE
inactive: [1] 0.828 | [2] 0.782 | [3] 0.701 | [4] 0.855 | [5] 0.732 | [6] 0.956

B33: CCDC93_Y209 (peptide)
chain: EYGRRYGFSRQ
inactive: [1] 0.254 | [2] 0.3 | [3] 0.246 | [4] 0.252 | [5] 0.349 | [6] 0.278

B34: CD200R1L_Y138 (peptide)
chain: NFHRGYHLQVL
inactive: [1] 1.23 | [2] 1.13 | [3] 1.32 | [4] 0.791 | [5] 1.17 | [6] 1.12

B35: CCDC178_Y422_D420N (peptide)
chain: AVNNFYAAKKT
inactive: [1] 0.708 | [2] 0.609 | [3] 0.661 | [4] 0.425 | [5] 0.672 | [6] 0.656

B36: CCDC178_Y422 (peptide)
chain: AVNDFYAAKKT
inactive: [1] 0.953 | [2] 0.662 | [3] 0.665 | [4] 0.64 | [5] 0.685 | [6] 0.847

B37: CBX8_Y321 (peptide)
chain: SGGGLYRDMGA
inactive: [1] 0.581 | [2] 0.709 | [3] 0.709 | [4] 0.541 | [5] 0.53 | [6] 0.567
